Some of the results follow. Single values of this set are uncertain. Values with irradiation are relative to irradiated vehicle.

The test system of this assay is A549-Dual. The assay can be described thus: ISRE reporter (Lucia luciferase) activity, viability-corrected, relative to vehicle (fold change vs vehicle); higher = more activation of STING-IRF / NF-kB immune response reporter. Conditions: 10 µM; irradiation: 8 Gy/4 fr.
In the case of `CCC(COC(=O)c1cc(OC)c(OC)c(OC)c1)(c1ccccc1)N(C)C` (configuration not stated) [Trimebutine], the ISRE reporter was 0.766. `C[N+]12CCC(CC1)C(OC(=O)C(O)(c1ccccc1)c1ccccc1)C2.[Br-]` (configuration not stated) [Clidinium Bromide] yielded an ISRE reporter of 0.656. As for `CC1OC(OC2C(O)C(O)C(O)C(O)C2O)C(N)CC1NC(=N)C(=O)O.Cl` (configuration not stated) [Kasugamycin hydrochloride], the figure is 0.56.

`O=[N+]([O-])C(Br)(CO)CO` [Bronopol] showed an ISRE reporter of 0.781.

Turning to `Nc1nc(N)nc(NC2CC2)n1` [Cyromazine], the ISRE reporter is 0.79. Molecule `NCCc1ccc(O)cc1` [Tyramine] gave an ISRE reporter of 0.545. As for `CCOC(=O)Nc1ccc(NCc2ccc(F)cc2)cc1N.Cl.Cl` [Retigabine 2HCl], the figure is 0.691. As for `C=CCN1CCC23c4c5ccc(O)c4OC2C(=O)CCC3(O)C1C5.Cl` (configuration not stated) [Naloxone HCl], the ISRE reporter amounted to 0.742. For `CC(=O)c1c([O-])cc(C)oc1=O.[Na+]` [Sodium dehydroacetate], the ISRE reporter amounted to 0.872. Molecule `O=c1ccc2ccc3occc3c2o1` [Isopsoralen] showed an ISRE reporter of 0.583.

As for `Oc1ccc(Cl)cc1Cc1cc(Cl)ccc1O` [Dichlorophene], the ISRE reporter came out at 0.144. As for `C#CC1(OC(=O)CCCCCC)CCC2C3CCC4=CC(=O)CCC4C3CCC21C` (configuration not stated) [Norethisterone Enanthate], the figure is 0.0463.

The values above are taken from the supplement of paper PMC9174493.
